Test results reported in the supplement of paper PMC11876631.
± gives the standard deviation of the averaged measurements. Laboratory Escherichia coli strains with one amino-acid change in an essential protein, pooled on minimal glucose agar with carbenicillin or gentamicin at twice the control MIC (plus kanamycin and chloramphenicol for the plasmids), 48 h. Fold change of barcode share against drug-free plates; higher = less susceptible. Active = above 20 in both replicates (the paper's putatively resistant). '<' = one read or none on drug, '>' = one read or none on a drug-free plate. Shares are relative, so most strains fall below 1 when a few take over. Listed are strains with at least 15 reads on both drug-free plates, and hits; most hits rest on fewer reference reads. Replicate rank correlation about 0.5. Edits are read from barcodes.

B1: proC; numbered along this chain (parent)
chain: MEKKIGFIGCGNMGKAILGGLIASGQVLPGQIWVYTPSPDKVAALHDQFGINAAESAQEVAQIADIIFAAVKPGIMIKVLSEITSSLNKDSLVVSIAAGVTLDQLARALGHDRKIIRAMPNTPALVNAGMTSVTPNALVTPEDTADVLNIFRCFGEAEVIAEPMIHPVVGVSGSSPAYVFMFIEAMADAAVLGGMPRAQAYKFAAQAVMGSAKMVLETGEHPGALKDMVCSPGGTTIEAVRVLEEKGFRAAVIEAMTKCMEKSEKLSKS
B2: nadK; a variant is named by its letters at X, in order (parent)
chain: MNNHFKCIGIVGHPRHPTALTTHEMLYRXLCTKGYEVIVEQQIAHELQLKNVKTGTLAEIGQLADLAVXVGGDGNMLGAARTLARYDIKVIGINRGNLGFLTDLDPDNAQQQLADVLEGHYISEKRFLLEAQVCQQDCQKRISTAXNEVVLHPGKVAHXIEFEVYIDEIFAFSQRSDGLIISTPTGSTAYSLSAGGPILTPSLDAITLVPMXPHTLSARPLVINSSSTIRLRFSHRRNDLEISCDSQIALPIQEGEDVLIRRCDYHLNLIHPKDYSYFNTLSTKLGWSKKLF
B3: lptD; numbered along this chain (parent)
chain: MKKRIPTLLATMIATALYSQQGLAADLASQCMLGVPSYDRPLVQGDTNDLPVTINADHAKGDYPDDAVFTGSVDIMQGNSRLQADEVQLHQKEAPGQPEPVRTVDALGNVHYDDNQVILKGPKGWANLNTKDTNVWEGDYQMVGRQGRGKADLMKQRGENRYTILDNGSFTSCLPGSDTWSVVGSEIIHDREEQVAEIWNARFKVGPVPIFYSPYLQLPVGDKRRSGFLIPNAKYTTTNYFEFYLPYYWNIAPNMDATITPHYMHRRGNIMWENEFRYLSQAGAGLMELDYLPSDKVYEDEHPNDDSSRRWLFYWNHSGVMDQVWRFNVDYTKVSDPSYFNDFDNKYGSSTDGYATQKFSVGYAVQNFNATVSTKQFQVFSEQNTSSYSAEPQLDVNYYQNDVGPFDTRIYGQAVHFVNTRDDMPEATRVHLEPTINLPLSNNWGSINTEAKLLATHYQQTNLDWYNSRNTTKLDESVNRVMPQFKVDGKMVFERDMEMLAPGYTQTLEPRAQYLYVPYRDQSDIYNYDSSLLQSDYSGLFRDRTYGGLDRIASANQVTTGVTSRIYDDAAVERFNISVGQIYYFTESRTGDDNITWENDDKTGSLVWAGDTYWRISERWGLRGGIQYDTRLDNVATSNSSIEYRRDEDRLVQLNYRYASPEYIQATLPKYYSTAEQYKNGISQVGAVASWPIADRWSIVGAYYYDTNANKQADSMLGVQYSSCCYAIRVGYERKLNGWDNDKQHAVYDNAIGFNIELRGLSSNYGLGTQEMLRSNILPYQNTL

Variants of: B1
Experiment: barcode share on antibiotic plates over drug-free plates; higher = less susceptible
Conditions: with Escherichia coli (laboratory strain); antibiotic: carbenicillin; 2× MIC (3.1 µg/mL)
Description: (§1)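 A pool of E. coli strains, each edited to carry one amino-acid change in an essential protein, was grown for 48 h on minimal glucose agar with or without antibiotic; strain barcodes were sequenced; mean of two replicates.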

Row | Variant | fold change of barcode share
1 | V94A | 0.353 ± 0.12
2 | V94W | 0.164 ± 0.049
3 | V34Q | 0.257 ± 0.045
4 | V34W | 0.398 ± 0.052
5 | F154W | 0.255 ± 0.14
6 | F154A | 0.271 ± 0.12
7 | F154Q | 0.261 ± 0.084
8 | F154P | 0.28 ± 0.11
9 | F154D | 0.348 ± 0.13
10 | V93P | 0.276 ± 0.11
11 | L18A | 0.364 ± 0.041
12 | L18W | 0.455 ± 0.24
13 | L18P | 0.495 ± 0.16
14 | L18Q | 0.268 ± 0.025

Same assay, conditions: with Escherichia coli (laboratory strain); antibiotic: gentamicin; 2× MIC (MIC 0.45 µg/mL)

Row | Variant | fold change of barcode share
15 | V94A | 0.0476 ± 0.042
16 | V34Q | 0.0101 ± 0.01
17 | V34W | 0.0141 ± 0.015
18 | F151A | < 0.0121
19 | F151W | 0.0201 ± 0.0025
20 | F68A | 0.0441 ± 0.043
21 | F154W | 0.00787 ± 0.0057
22 | F154A | 0.0063 ± 0.00087
23 | F154Q | 0.0128 ± 0.009
24 | F154P | 0.0134 ± 0.014
25 | F154D | 0.00417 ± 0.001
26 | V93W | < 0.0161
27 | V93P | < 0.0145
28 | L18A | 0.0084 ± 0.00058
29 | L18W | 0.275 ± 0.38
30 | L18P | 0.0139 ± 0.0027
31 | L18Q | 0.0385 ± 0.048

Variants of: B2
Experiment: as above
Conditions: with Escherichia coli (laboratory strain); antibiotic: carbenicillin; 2× MIC (3.1 µg/mL)
Description: as §1

Row | Variant | fold change of barcode share
32 | WVWMF | 0.464 ± 0.027
33 | DVIMF | 0.333 ± 0.083
34 | WAIMF | 0.295 ± 0.091
35 | PVIMF | 0.136 ± 0.011
36 | WVAMF | 0.631 ± 0.45
37 | WQIMF | 0.448 ± 0.36
38 | WVIMA | 0.406 ± 0.089
39 | WVIMQ | 0.325 ± 0.11
40 | QVIMF | 0.306 ± 0.096
41 | AVIMF | 0.241 ± 0.042
42 | WPIMF | 0.0777 ± 0.022
43 | WVQMF | 0.321 ± 0.034

Same assay, conditions: with Escherichia coli (laboratory strain); antibiotic: gentamicin; 2× MIC (MIC 0.45 µg/mL)

Row | Variant | fold change of barcode share
44 | WVWMF | < 0.00791
45 | DVIMF | 0.012 ± 0.011
46 | WAIMF | 0.0144 ± 0.0078
47 | WVIMF I160A | < 0.00839
48 | WVIMF I160Q | < 0.00895
49 | WVIMF I160W | 0.132 ± 0.18
50 | WVIMF I160P | < 0.00494
51 | WVIMF I160D | 0.346 ± 0.46
52 | PVIMF | 0.0102 ± 0.0095
53 | WVAMF | 0.0128 ± 0.0099
54 | WQIMF | 0.00912 ± 0.0047
55 | WVIMA | < 0.00277
56 | WVIMQ | < 0.00296
57 | QVIMF | < 0.00427
58 | AVIMF | < 0.00415
59 | WPIMF | 0.00561 ± 0.004
60 | WVIWF | 0.00652 ± 0.002
61 | WVIQF | < 0.00481
62 | WVIPF | < 0.0188
63 | WVQMF | 0.00566 ± 0.0042

Variants of: B3
Experiment: as above
Conditions: with Escherichia coli (laboratory strain); antibiotic: carbenicillin; 2× MIC (3.1 µg/mL)
Description: as §1

Row | Variant | fold change of barcode share
64 | I582D | 1.22 ± 1.1
65 | I582W | 0.213 ± 0.0032
66 | F417A | 0.554 ± 0.21
67 | F417Q | 0.407 ± 0.23
68 | F417W | 0.152 ± 0.068
69 | F417P | 0.14 ± 0.072
70 | F417D | 0.215 ± 0.062
71 | I664P | 0.421 ± 0.046
72 | I664A | 0.415 ± 0.14
73 | I664D | 0.226 ± 0.014
74 | I664Q | 0.354 ± 0.0059
75 | I664W | 0.392 ± 0.081
76 | L736Q | 0.316 ± 0.18
77 | L736D | 0.184 ± 0.074
78 | L736W | 0.177 ± 0.055
79 | L736A | 0.332 ± 0.076
80 | L540P | 0.17 ± 0.023
81 | L540D | 0.0713 ± 0.053
82 | L651A | 0.256 ± 0.086
83 | L651P | 0.131 ± 0.013

Same assay, conditions: with Escherichia coli (laboratory strain); antibiotic: gentamicin; 2× MIC (MIC 0.45 µg/mL)

Row | Variant | fold change of barcode share
84 | I582D | < 0.0171
85 | I582W | < 0.0164
86 | F417A | < 0.0112
87 | F417Q | < 0.014
88 | F417W | < 0.00948
89 | F417P | < 0.0117
90 | F417D | < 0.0104
91 | I664P | 0.00704 ± 0.0057
92 | I664A | 0.00566 ± 0.0033
93 | I664D | < 0.00351
94 | I664Q | 0.0243 ± 0.021
95 | I664W | 0.00523 ± 0.0024
96 | L736Q | < 0.0177
97 | L736D | < 0.0116
98 | L736W | < 0.00992
99 | L736A | < 0.0102
100 | L540P | < 0.0175
101 | L540D | < 0.0164
102 | L540Q | < 0.0168
103 | L540W | < 0.0168
104 | L651A | < 0.00866
105 | L651D | < 0.00749
106 | L651P | < 0.015
107 | L651W | < 0.0146
